# Variants at the floor of the assay are shown more often than the library holds them.
# B1: TPR 5TU (parent)
# chain: GGAUCUUCUCGAUCUAACAAAAAAGACAAAUCUGCCACAAAGCUUGAGAGCAUCUUCGGAUGCAGAGGCGGCAGCCUUCGGUGGCGCGAUAGCGCCAACGUUCUCAACUAUGACACGCAAAACGCGUGCUCCGUUGAAUGGAGUUUAUCAUG
# Variants of: B1
# Assay: polymerase ribozyme fitness, log enrichment relative to wild type (log ratio); higher = more active; in vitro selection for triplet polymerase activity
# Procedure, shortened: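 Libraries of mutants in each subunit of a heterodimeric triplet polymerase ribozyme were generated by PCR and transcribed. In triplicate, each went through one in vitro selection round: annealing with biotinylated primer, partner subunit and triplets; frozen incubation at −7 °C; gel excision of extended constructs; streptavidin-bead capture; RT-PCR. Fitness, taken from Illumina sequencing of input and output libraries, is the logarithm of a genotype's enrichment over wild-type enrichment, averaged across replicates with inverse-variance weights. The logarithm is base 2, and genotypes needed ≥10 input reads and ≥1 read per output to be kept.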
row,Variant,polymerase ribozyme fitness (log ratio)
1,GGAUCUUCUCGAUCUAACAAAGAAGACAAAUCUGCCACAAAGCUUGAGAGCAUAUUCGGAGGCAGAGGCGGCAGCCUUCGGUGGACCGAUAGCGCCAACGUUCUCAACUAUGACACGCAAAACGCGUGCUCCGUUGACUGGACGUUAUCAUG [A22G C54A U61G C85A G86C A138C G143C U144G],≤ -4.2
2,GGAUCUUCUCGAUCUAACAAAGAAGACAAAUCUGCCACAAAGCUUGAGAGCAUUUUCGGAUGCAGAGGCGGCAGCCUUCGGUGGCGCGAUAGCGCCAACGUUCUCAACUAUGACACGCAAAACGCGUGCUCCGUUGAAUGGAGUUUAUCAUG [A22G C54U],0.651
3,GGAUCUUCUCGAUCUAACAAAGAAGACAAAUCUGCCACAAAGCUUGAGAGCAUCUUGGGAUGCAGAGGCGGCAGCCUUCGGUGGCGCGAUAGCGCCAACGUUCUCAACUAUGACACGCAAAACGCGUGCUCCGUUGAAUAGAGUUUAUCAUG [A22G C57G G140A],≤ -4.2
4,GGAUCUUCUCGAUCUAACAAAGAAGACAAAUCUGCCACAAAGCUUGAGAGCAUCUUUGGAUGCAGAGGCAGCAGCCUUCGGUGGCGCGAUCGCGCCAACGUUCUCAACUAUGACACGCAAAACGCGUGCUCCGUUGAAUGGAGUUUAUCAUG [A22G C57U G70A A91C],≤ -4.2
5,GGAUCUUCUCGAUCUAACAAAGAAGACAAAUCUGCCACAAAGCUUGAGAGCAUCUUCGGAUGCAGAGGCGGCAGUCUUCGGUGGCGAGAUAGCGCCAACGUUCUCAACUAUGACACGCAAAACGCGUGCUCCGUUGAAUGCCGUUUAUCAUG [A22G C75U C87A G141C A142C],≤ -4.2
6,GGAUCUUCUCGAUCUAACAAAGAAGACAAAUCUGCCACAAAGCUUGAGAGCAUCUUCGGAUGCAGAGGCGGCAGCCUUCGGUGGGGCGAUUGCACCAACGUUCUCAACUAUGACACGCAAAACGCGUGCUCCGUUGAAUGGAGUUUAUCAUG [A22G C85G A91U G94A],≤ -4.2
7,GGAUCUUCUCGAUCUAACAAAGAAGACAAAUCUGCCACAAAGCUUGAGAGCAUCUUCGGAUGCAGAGGCGGCAGCCUUCGGUGGUGCGAUAGCGCCAACGUUCUCAACUAUGACACGCAAAACGCGUGCUCCCUUGAAUGGAGUUUAUCAUG [A22G C85U G133C],-1.48
8,GGAUCUUCUCGAUCUAACAAAGAAGACAAAUCUGCCACAAAGCUUGAGAGCAUCUUCGGAUGCAGAGGCGGCAGCCUUCGGUGGCGAGAUAUCGCCAACGUUCUCAACUAUGACACGCAAAACGCGUGCUCCGUUCAAUGGAGUUUAUCCUG [A22G C87A G92U G136C A150C],≤ -4.2
9,GGAUCUUCUCGAUCUAACAAAGAAGACAAAUCUGCCACAAAGCUUGAGAGCAUCUUCGGAUGCAGAGGCGGCAGCCUUCGGUGGCGUGAUAGCGCCAACGUUAUCAACUAUGACACGCAAAACGCGUGCUCCGUUGGAUGCAGUUUAUCAUG [A22G C87U C103A A137G G141C],≤ -4.2
10,GGAUCUUCUCGAUCUAACAAAGAAGACAAAUCUGCCACAAAGCUUGAGAGCAUCUUCGGAUGCAGAGGCGGCAGCCUUCGGUGGCGCGAUAGCGCAAACGUUCUCAACUAUGACACGCAAAACGCGUGCUCCGUUGAAUGGAGUUUAUCAGG [A22G C96A U151G],≤ -4.2
11,GGAUCUUCUCGAUCUAACAAAGAAGACAAAUCUUCCAAAAAGCUUGAGAGCAUCUUCGGAUGCAGAGGCGGCAGCCUUCGGUGGCGCGAUAGCGACAACGUUCUCAACUAUGACACGCAAAACGCGUGCUCCGUUGAAUCGAGUUUAUCAUG [A22G G34U C38A C95A G140C],≤ -4.2
12,GGAUCUUCUCGAUCUAACAAAGAAGACAAAUCUGCCACAAAGCUUGAGAGCAUCUUCAGAUGCAGAGGCGGCAGACUUCGGUGGCUCGAUAGCGCCAAAGUUUUCAACUAUGACACGCAAAACGCGUGCUCCGUUGAAUGCAGUUUAUCAUG [A22G G58A C75A G86U C99A C103U G141C],≤ -4.2
13,GGAUCUUCUCGAUCUAACAAAGAAGACAAAUCUGCCACAAAGCUUGAGAGCAUCUUCGGAUACAGAGGCGGCAGCAUUCGGUGGCGCGAUAGUGCCAACGUUCUCAACUAUGACACGCAAAACGCGUGCUCCGUUGAGUGGAGUUUAUCAUG [A22G G62A C76A C93U A138G],≤ -4.2
14,GGAUCUUCUCGAUCUAACAAAGAAGACAAAUCUGCCACAAAGCUUGAGAGCAUCUUCGGAUGCAGAGGCGGCACCCUUCGGUGGCACGAUAGCGCCAACGUUCUCAACUAUGACACGCAAAACGCGUGCUCCGUUGAAUGGUGUGUAUCAUG [A22G G74C G86A A142U U145G],≤ -4.2
15,GGAUCUUCUCGAUCUAACAAAGAAGACAAAUCUGCCACAAAGCUUGAGAGCAUCUUCGGAUGCAGAGGCGGCAGCCUUCGGUGGCUCGAGAGCGCCAACGUUCUUAACUAUGACACGCAAAACGCGUGCUCCGUUGAAUGGAGUUUAUCAUG [A22G G86U U90G C105U],≤ -4.2
16,GGAUCUUCUCGAUCUAACAAAGAAGACAAAUCUGCCACAAAGCUUGAGAGCAUCUUCGGAUGCAGAGGCGGCAGCCUUCGGUGGCGCGAUAGCGCCAACAUUCUCAACUAUGACACGCAAAACGCGUGCUCCGUUGAAUGGAGUUUAUCAUG [A22G G100A],≤ -4.2
17,GGAUCUUCUCGAUCUAACAAAGAAGACAAACCUGCCACAAAGCUUGAGAGCAUCAUCGGAUGCAGAGGCGGCAGCCUUCGGUGGCGCGAUAGGGCCAACGUUCUCAAAUAUGACACGCAAAACGCGUGCUCCGUUGAAUGGAGUUUAUCAUG [A22G U31C U55A C93G C108A],≤ -4.2
18,GGAUCUUCUCGAUCUAACAAAGAAGACAAAUCUGCCACAAAGCAUGAGAGCAUCUUCGGAUGCAGAGGCGGCAGCCUUCGGUGGAGCGAUAGCGCCAACGUUCUCAACUAUGACACGCAAAACGCGUGCUCCGUUGAAUGGAGUUUAUCAUG [A22G U44A C85A],≤ -4.2
19,GGAUCUUCUCGAUCUAACAAAGAAGACAAAUCUGCCACAAAGCAUGAGAGCAUCUUCGGAUGCAGAGGCGGCAGCCUUCGUUGGCGCGAUAGCGCCAACGUUCUCAACUAUGACAUGCAAAACGCGUGCUCCGUGGAAUGGAGUUUAUCAUG [A22G U44A G81U C116U U135G],≤ -4.2

# From the RNAGym collection of RNA variant scans (doi:10.1073/pnas.2313332121)
